Among all 350,000 compounds or so, about 31,000 (8.9%) were called active. The shares of active, inactive and inconclusive entries below differ from those in the screen. Calls come from the whole dose curve; as a rule, active = well fitted inhibition curve with a large enough effect; inconclusive = small, poorly fitted or top-dose-only effect; inactive = no such curve, though single readings can be large or run the other way. Where the call is inconclusive, the potency comes from a doubtful curve fit.
Biological target: Histone-lysine N-methyltransferase EHMT2 (Homo sapiens) (UniProt Q96KQ7)
UniProt Q96KQ7, sequence (Q96KQ7 whole entry, looked up): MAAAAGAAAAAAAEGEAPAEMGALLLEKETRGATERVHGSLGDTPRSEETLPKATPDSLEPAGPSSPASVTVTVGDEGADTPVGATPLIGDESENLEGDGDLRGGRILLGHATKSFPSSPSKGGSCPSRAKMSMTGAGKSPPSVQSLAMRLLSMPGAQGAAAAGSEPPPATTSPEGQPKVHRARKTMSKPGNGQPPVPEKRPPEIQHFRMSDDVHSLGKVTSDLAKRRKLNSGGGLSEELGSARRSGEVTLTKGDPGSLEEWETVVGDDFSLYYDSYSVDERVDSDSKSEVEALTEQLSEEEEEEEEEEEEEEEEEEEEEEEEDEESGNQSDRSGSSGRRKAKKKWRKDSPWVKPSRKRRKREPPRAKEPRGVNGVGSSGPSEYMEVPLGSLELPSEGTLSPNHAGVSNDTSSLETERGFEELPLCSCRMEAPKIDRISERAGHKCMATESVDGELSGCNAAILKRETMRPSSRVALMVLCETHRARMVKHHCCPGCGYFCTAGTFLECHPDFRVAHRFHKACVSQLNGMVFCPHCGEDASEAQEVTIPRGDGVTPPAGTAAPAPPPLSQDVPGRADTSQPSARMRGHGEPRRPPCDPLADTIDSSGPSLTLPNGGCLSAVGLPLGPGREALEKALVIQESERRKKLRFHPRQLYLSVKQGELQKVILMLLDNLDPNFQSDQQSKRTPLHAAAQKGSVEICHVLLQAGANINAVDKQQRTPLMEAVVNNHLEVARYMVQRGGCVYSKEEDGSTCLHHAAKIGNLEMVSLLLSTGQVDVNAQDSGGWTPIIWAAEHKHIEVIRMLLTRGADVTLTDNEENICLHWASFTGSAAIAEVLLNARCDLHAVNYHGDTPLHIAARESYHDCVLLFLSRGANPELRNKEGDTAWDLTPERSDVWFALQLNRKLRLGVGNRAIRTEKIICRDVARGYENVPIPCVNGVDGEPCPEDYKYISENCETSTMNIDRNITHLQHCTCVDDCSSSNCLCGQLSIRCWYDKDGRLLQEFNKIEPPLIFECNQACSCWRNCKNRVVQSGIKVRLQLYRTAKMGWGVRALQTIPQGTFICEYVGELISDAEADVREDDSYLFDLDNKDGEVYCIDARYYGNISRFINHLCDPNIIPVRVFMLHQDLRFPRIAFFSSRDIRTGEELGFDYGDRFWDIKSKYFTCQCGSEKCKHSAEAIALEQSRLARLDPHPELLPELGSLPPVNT
Assay: qHTS Assay for Inhibitors of Histone Lysine Methyltransferase G9a; note: nearly all actives have a fitted effect of over 75% in size
Details: G9a H3K9 monomethylation, AlphaScreen, 2 h; activity, negative = inhibition: at 59 µM (top of the series) unless noted
In short: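 Chemiluminescent proximity detection of H3K9 monomethylation, read after 10 min bead incubation in the dark. Reaction: 20 nM G9a, 500 nM biotin-H3K9 peptide, 20 uM SAM cofactor, 2 h, room temperature, following 15 min enzyme-compound preincubation.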
% is set by controls: 0 for no effect and ±100 for the full control effect; potency is the fitted concentration of half-maximal effect; tags give direction and shape of the fitted curve.

Row | Structure (SMILES) | Potency | activity, negative = inhibition
1 | Cc1cccnc1NC(=S)NC(=O)/C=C/c1ccccc1 | inconclusive: 28.2 µM [inhibitor, full curve] | 
2 | C/C(N)=C(/C#N)C(=O)COC(=O)Cc1coc2cc(C)ccc12 | inconclusive: 50.1 µM [inhibitor, partial curve, poor fit] | 
3 | CCOc1ccc(N(CC(=O)NCc2cccc(OC)c2)S(=O)(=O)c2c(C)noc2C)cc1 | inactive | 
4 | Cn1c(CN2CCCC2)nc2cc(NC(=O)c3ccc(Cl)cc3)ccc21 | inconclusive: 39.8 µM [inhibitor, partial curve, poor fit] | 
5 | Cc1cccc(N2CCN(C(=O)c3ccc4c(Cl)c5c(nc4c3)CCCC5)CC2)c1C | inactive | 
6 | O=C(CCCNS(=O)(=O)c1cccs1)N1CCN(c2ccc(F)cc2)CC1 | inconclusive: 79.4 µM [inhibitor, single point] | 
7 | CN(C)S(=O)(=O)N(CC(=O)Nc1ccccc1)c1ccccc1 | inactive | 
8 | CC(CN1CCN(C)CC1)OC(=O)c1ccc(Cl)cc1 (centres undefined) | inconclusive: 50.1 µM [inhibitor, partial curve, poor fit] | 
9 | C=CCSc1nc2ccccc2c(=O)[nH]1 | inactive | 
10 | C/C(=N/NC(=O)CSc1nc2ccccc2n1C)c1ccncc1 | inactive | 
11 | Cc1ccc(NC(=O)CSCC(=O)Nc2cccc(S(=O)(=O)N3CCCCCC3)c2)cc1 |  | inactive: 6.7% [at 12.7 µM]
12 | CC(C)CN(C[C@@H](O)[C@H](Cc1ccccc1)NC(=O)O[C@H]1CCOC1)S(=O)(=O)c1ccc(N)cc1 | inactive | 
13 | COc1ccc(NC(=O)c2csnn2)cc1 | inconclusive: 35.5 µM [inhibitor, single point] | 
14 | Cc1ccc(S(=O)(=O)/N=C2/NC(=O)/C(=C/c3ccccc3)S2)cc1 | active: 50.1 µM | 
15 | N#C/C(=C(/O)CSc1nnc(Cc2cccs2)n1C1CCCCC1)c1nc2ccccc2[nH]1 | inconclusive: 2 µM [inhibitor, full curve, poor fit] | 
16 | NC(=S)N=Nc1c(O)[nH]c2ccccc12 | inconclusive: 89.1 µM [inhibitor, single point] | 
17 | C/C(=C\c1ccccc1)CN1CCN(c2ccccc2F)CC1 | inconclusive: 22.4 µM [inhibitor, single point] | 
18 | COc1ccc(C(=O)Cc2cc(OC)c(OC)cc2[N+](=O)[O-])cc1 | inactive | 
19 | CCCN(CC1CCCO1)C(=O)c1cc(COc2ccc(F)cc2F)on1 (centres undefined) | inconclusive: 89.1 µM [inhibitor, single point] | 
20 | COc1ccccc1CNCc1ccc(OC)c(OC)c1OC | active: 10 µM | 
21 | COC(=O)c1c(-c2ccc(Cl)cc2)noc1N1CCN(c2ccc(F)cc2)CC1 | inactive | 
22 | CCOc1ccc(N2C(=O)CC(n3nc(C)cc3C)C2=O)cc1 (centres undefined) | inconclusive: 22.4 µM [inhibitor, single point] | 
23 | O=S(=O)(Cc1ccc(Cl)cc1)c1ncc(CO)n1Cc1ccccc1 | inactive | 

Row | Structure (SMILES) | Potency | activity, negative = inhibition
24 | CC1CCCC(C)N1C(=O)COC(=O)c1cc(Br)ccc1Cl (centres undefined) |  | inactive: 28.7% [at 12.7 µM]
25 | Cc1ccc(-c2ccc(C(=O)NCc3ccccc3)o2)c2ccccc12 | active: 39.8 µM | 
26 | C#CCOCCOCCOCCNc1nc(N2CCN(C(=O)[C@H](CCC(=O)O)n3cc(C(N)Cc4ccc(O)cc4)nn3)CC2)nc(N2CCN(C(=O)[C@H](Cc3cc4ccccc4[nH]3)n3cc(C(N)CC(C)C)nn3)CC2)n1 (some centres undefined) |  | inactive: 4.69% [at 12.7 µM]
27 | O=C(Cc1c(F)cccc1Cl)c1ccc(O)cc1O | inconclusive: 89.1 µM [inhibitor, single point] | 
28 | O=C(Nc1csnn1)c1csnn1 | inconclusive: 12.6 µM [inhibitor, full curve, poor fit] | 
29 | COc1cccc2c1cc1c(=O)n(CC(=O)N3CCN(c4cccc(C)c4)C(C)C3)nc(C)n12 (centres undefined) | inactive | 
30 | COc1cccc(-c2nc(NCC3CCCO3)c3ccccc3n2)c1O (centres undefined) | inconclusive: 3.16 µM [inhibitor, full curve, poor fit] | 
31 | CCCC1=Nc2cc(C(=O)NC3CCCC3)ccc2Sc2ccc(C)cc21 | inactive | 
32 | NC(=O)c1sc2nc3c(c(-c4ccc(Cl)cc4)c2c1N)CCCC3 | active: 11.2 µM | 
33 | Cn1c(=O)n(-c2ccc3c(c2)OCO3)c2nc(-c3ccccc3)nc(C(N)=O)c21 | inconclusive: 1.41 µM [inhibitor, partial curve, poor fit] | 
34 | CC[C@]1(O)CC2CN(CCc3c([nH]c4ccccc34)[C@@](C(=O)OC)(c3cc4c(cc3OC)N(C=O)[C@H]3[C@@](O)(C(=O)OC)[C@H](OC(C)=O)[C@]5(CC)C=CCN6CC[C@]43[C@@H]65)C2)C1 (some centres undefined) | inconclusive: 28.2 µM [inhibitor, single point] | 
35 | COc1cccc(NC(=O)CN(C)C(=O)Cc2ccc(Cl)cc2Cl)c1 | inactive | 
36 | COc1ccc(OC)c(-c2nnc(SCC(=O)NC3CCCCC3)o2)c1 | active: 44.7 µM | 
37 | C=CCN1C(=O)c2ccc(C(=O)N(CC)CC(=O)Nc3cc(Cl)ccc3C)cc2C1=O | inconclusive: 56.2 µM [inhibitor, partial curve, poor fit] | 
38 | CCN(c1ccc(NC(=O)c2cccc(S(=O)(=O)N3CCN(C)CC3)c2)cc1)C(C)C | inconclusive: 22.4 µM [inhibitor, partial curve, poor fit] | 
39 | CC1(C)CC(NC(=O)c2ccc(Cl)cc2)CC(C)(C)N1 | inactive | 
40 | O=C(CSc1ccccc1)Nc1nnc(-c2ccco2)o1 | inconclusive: 10 µM [inhibitor, partial curve, poor fit] | 
41 | CN(Cc1ccccc1)S(=O)(=O)c1ccc(OCC(=O)Nc2cccc([N+](=O)[O-])c2)cc1 | inconclusive: 79.4 µM [inhibitor, single point] | 
42 | COc1ccc(/C=C(\NC(=O)/C=C/c2ccco2)C(=O)NCCc2nc3ccccc3[nH]2)cc1 | inconclusive: 39.8 µM [inhibitor, single point] | 
43 | CN(c1ccc(O)cc1)c1nc(-c2ccccc2)cs1 | inconclusive: 8.91 µM [inhibitor, partial curve] | 
44 | O=S(Cc1ccc(Br)cc1)Cc1nnc(SCc2c(F)cccc2Cl)n1-c1ccccc1 (centres undefined) | inconclusive: 89.1 µM [inhibitor, single point] | 
45 | O=C(Nc1nc2ccccc2c(=O)s1)c1ccc(F)cc1Cl | active: 70.8 µM | 
46 | CC(C)(C)CC(C)(C)N1CNC(=S)NC1 | active: 44.7 µM | 

Row | Structure (SMILES) | Potency | activity, negative = inhibition
47 | O=C(C1=C[C@@H]2[C@H]3C(=O)N(c4ccccc4Cl)C(=O)[C@H]3[C@@H](C(=O)c3ccc(Cl)cc3)N2C=C1)c1ccccc1 | active: 8.91 µM | 
48 | CC(=O)N1CCN(c2nc(CC(C)C)c3c(c2C#N)CCC3)CC1 | inconclusive: 4.47 µM [inhibitor, partial curve, poor fit] | 
49 | C#CCOCCOCCOCCNc1nc(N2CCN(C(=O)CCCCCCCCCCNC(=O)[C@H]([C@@H](C)CC)n3cc(CCCCN=C(N)N)nn3)CC2)nc(N2CCN(C(=O)CCCCCCCCCCNC(=O)[C@H]([C@@H](C)CC)n3cc(CCCCN=C(N)N)nn3)CC2)n1 |  | inactive: -8.57% [at 2.33 µM]
50 | O=C(CSc1nnc(-c2ccncc2)n1Cc1ccccc1)Nc1nccs1 |  | inactive: -17.1% [at 12.7 µM]
51 | COC(=O)C1=C(C)N(Cc2ccco2)C(=O)N[C@H]1c1ccccc1 | inconclusive: 79.4 µM [inhibitor, single point] | 
52 | O=C(/C=C/c1ccc(O)c(O)c1)NC(=O)c1ccccc1O |  | inactive: 5.14% [at 12.7 µM]
53 | O=C(O)CCN1C(=O)C(=C2CCCCCC2)SC1=S | active: 44.7 µM | 
54 | Cc1nn(C)c2ncc(C(N)=O)c(Oc3ccc(Cl)cc3)c12 | inconclusive: 44.7 µM [inhibitor, partial curve] | 
55 | O=C(CSC1=Nc2ccccc2C2=NC(CC(=O)NCc3ccco3)C(=O)N12)NCC1CCCO1 (centres undefined) | inconclusive: 63.1 µM [inhibitor, partial curve, poor fit] | 
56 | Cc1cccc(-n2c(C)cc(/C=C3\C(=N)N4N=C(CC(C)C)SC4=NC3=O)c2C)c1 | inactive | 
57 | O=c1/c(=C/c2ccc(O)cc2)sc2nc3cc(Br)cnc3n12 | active: 10 µM | 
58 | COc1cc2c(cc1OC)C1(CCCC1)C(N)=C2C#N | inconclusive: 39.8 µM [inhibitor, single point] | 
59 | COCCN(C(=O)C1CCN(C(=O)c2ccccc2C)CC1)c1c(N)n(CC(C)C)c(=O)[nH]c1=O | active: 1.58 µM | 
60 | CCN(CC)CC(C)CNC(=O)c1cc(-c2ccc(Br)s2)nc2ccccc12 (centres undefined) | inconclusive: 25.1 µM [inhibitor, partial curve, poor fit] | 
61 | COc1cccc(CN(C(=O)c2oc3cc(C)ccc3c2C)C2CCS(=O)(=O)C2)c1 (centres undefined) | inactive | 
62 | Cc1cccc(NC2=C(NCCO)C(=O)c3ccccc3C2=O)c1 | active: 31.6 µM | 
63 | N#Cc1c2n(c3c(N)ncnc13)CCCCC2 | inactive | 
64 | Cc1ccc(C(=O)C(NC(=O)c2ccco2)Nc2sc3c(c2C(N)=O)CCCC3)cc1 (centres undefined) | active: 12.6 µM | 
65 | COc1ccc(Nc2nc(=O)c3cc([N+](=O)[O-])ccc3s2)cc1 | inconclusive: 2.51 µM [inhibitor, partial curve, poor fit] | 
66 | Cc1cc(NC(=O)c2ccc(F)cc2)n(-c2ccccn2)n1 | inactive | 
67 | Cc1cccc(NC(=O)CN2C(=O)S/C(=C\c3ccc(O)c([N+](=O)[O-])c3)C2=O)c1 | active: 35.5 µM | 
68 | CC1CCC(NC(=O)c2ccc3c(c2)N(Cc2cccc(Cl)c2)C(=O)c2ccccc2S3(=O)=O)CC1 (centres undefined) | inactive | 
69 | COc1ccc(S(=O)(=O)N2CCCC(C(=O)NCC3CCCO3)C2)cc1C (centres undefined) | inconclusive: 79.4 µM [inhibitor, partial curve, poor fit] | 

Source: PubChem BioAssay AID504332 (National Center for Advancing Translational Sciences (NCATS), 2011)
